Here are results for six molecules from PMC5464627, “Design of short peptides to block BTLA/HVEM interactions for promoting anticancer T-cell responses” (PLoS ONE, 2017).

T1: recombinant human BTLA protein (Novoprotein, product code C563) (human) (UniProt Q7Z6A9)
T1 sequence: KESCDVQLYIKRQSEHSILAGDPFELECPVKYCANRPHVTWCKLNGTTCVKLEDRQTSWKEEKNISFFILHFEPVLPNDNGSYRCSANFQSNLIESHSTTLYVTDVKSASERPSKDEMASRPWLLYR

Results are given in words; binding and its absence hold for the method and conditions named. Some binding calls cover weakened binding; strength is not graded here.

This assay addresses T1, recombinant human BTLA protein (Novoprotein, product code C563) (human). In words: affinity microcolumn with MALDI-TOF MS; BTLA coupled to NHS-activated Sepharose in a microcolumn; peptide incubated 2 h at 25°C in NH4HCO3 pH 7.4; washed with 100 ml NH4HCO3 and 20 ml H2O; eluted with 0.1% TFA; supernatant, last wash and elution analysed by MALDI TOF/TOF; both purified.
Consider ELCAGPVTRKVECTYGE (N-terminal acetyl (Ac-); C-terminal amide (-NH2)) [Scrambled peptide], for which the binding entry is “no binding”. As to ELTGTVCEP (N-terminal acetyl (Ac-); C-terminal amide (-NH2)) [HVEM(31–39)], the binding result is given as “binds”.

For ELTGTVSEP (N-terminal acetyl (Ac-); C-terminal amide (-NH2)) [HVEM(31–39) C37S], the binding result was “no binding”. As to YRVKEASGELTGTVCEP (N-terminal acetyl (Ac-); C-terminal amide (-NH2)) [HVEM(23–39) C29S], the binding result is given as “binds”. Take YRVKEAYGELTGTVCEP (N-terminal acetyl (Ac-); C-terminal amide (-NH2)) [HVEM(23–39) C29Y]: the binding result is recorded as “binds”.

Take YRVKEACGELTGTVCEP (N-terminal acetyl (Ac-); C-terminal amide (-NH2)) [HVEM(23–39) peptide]: the binding entry is “binds”.
